One molecule from patent US8188081B2, “Methods of treating inflammation using prokineticin 1 receptor antagonists” (Janssen Pharmaceutica, NV, priority 2005, dated 2012) can be followed below.

The test system of this assay is rat ileum mucosa.

B1: PK1: recombinant human Prokineticin 1 expressed in HEK 293 cells, FLAG tag cleaved; mixture of full-length and four C-terminal residue truncated product (protein, UniProt P58294 20-105, looked up)
Prokineticin-1: AVITGACERDVQCGAGTCCAISLWLRGLRMCTPLGREGEECHPGSHKVPFFRKRKHHTCPCLPNLLCSRFPDGRYRCSMDLKNINF
modifications: mixture with C-terminal 4-residue truncated form
notes: recombinant human Prokineticin 1 expressed in HEK 293 cells, FLAG tag cleaved; mixture of full-length and four C-terminal residue truncated product
B1: the “concentration at which the maximal PK1-evoked response occurred” value stood at 100 nM and the “effect on tissue conductance (G)” value was “no significant effect”. For the same molecule, for the setting “100 nM PK1, n=42 tissues from 29 rats”, the “increase in Isc from baseline” value is listed as 28.7+/−2.9 μA/cm2. For the same molecule, the “time to peak Isc after single-dose addition” value (basolateral addition) lay within 2 to 4 min. The “change in Isc on addition to the mucosal tissue surface” value (mucosal (apical) addition, FIG. 2B) is on record as “failed to evoke a change in Isc”.
